# Laboratory results as given in PubChem BioAssay AID1671193 (National Center for Advancing Translational Sciences (NCATS), 2021).
# The campaign covered roughly 150,000 compounds. About 180 (0.12%) were called active. Inconclusive results, whose numbers are uncertain, are shown with a selection of clear calls. The call rests on the fitted dose curve; in most records, active means well fitted cell-killing curve with a large enough effect; inconclusive means small, poorly fitted or top-dose-only effect, or effect the other way; inactive means flat fitted curve, though single readings scatter. Potencies beside an inconclusive call are fits to weak or partial responses and may not hold up.
# Assay: GF-AFC viability counterscreen for inhibitors of alpha-synuclein gene (SNCA) expression; further: nearly all actives have a fitted effect of over 30% in size;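 on activity change, negative = cytotoxicity: 0% = DMSO-treated cells and -100% = medium-only wells without cells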
# Conditions: HEK-293-SNCA-luc viability, GF-AFC fluorescence, 24 h; activity change, negative = cytotoxicity: at 57.1 µM (top of the series) unless noted
# How it was run: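 HEK-293-SNCA-luc cells (1500/well) plated 24 h, then exposed 24 h to a dilution series; GF-AFC added 30 min at 37C, fluorescence 405/540 nm; normalised to medium-only and DMSO wells, Hill fit.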
# Potency means the concentration at half of the fitted maximal effect; tags describe the fitted curve by direction and shape.
SMILES,"activity change, negative = cytotoxicity",Potency
Cc1noc(C)c1-c1ccc2c(n1)CN(Cc1ccc(C(F)(F)F)cc1)C(=O)CO2,inactive: 8.24% [at 87.6 µM],
Cc1ccc(NC(=O)CSc2nc3ccccc3c3nc(CCn4c(C)nc5ccccc54)nn23)cc1F,,"inconclusive: 2 µM [cytotoxic, partial curve, poor fit]"
CCCc1nnc(NC(=O)c2nc(S(=O)(=O)Cc3ccc(C)cc3)ncc2Cl)s1,,active: 28.2 µM
O=C(c1ccc(C(F)(F)F)cc1)N1CCC2(CC1)CCN(Cc1cccs1)c1ccccc1O2,inactive: -9.96%,
CC(C)C[C@H](NC(=O)C1OC1C(=O)O)C(=O)NCCCCN=C(N)N (stereo not given in full),,"inconclusive: 3.55 µM [cytotoxic, partial curve, poor fit]"
COc1ccc(-c2cn3cc(C(=O)NCCN4CCOCC4)nc3s2)cc1,inactive: -5%,
CC(=O)NCCNC[C@@H]1C=C(C)[C@H](Cc2nnc(-c3ccc(C)cc3)o2)C[C@H]1C(C)C,inactive: -28.8% [at 87.6 µM],
COCCOc1ncccc1-c1noc([C@@H]2CCCN2Cc2ccc(OC)cc2)n1,inactive: -14.7% [at 87.6 µM],
CC(C)(CC(=O)O)CC(=O)N1C[C@@H]2C[C@H](C1)c1ccc(-c3cc4ccccc4s3)c(=O)n1C2,,"inconclusive: 28.2 µM [rising, partial curve]"
O=C(COc1ccccc1)Nc1ccc([C@@H](O)[C@H]2COCC(=O)N2CCCc2ccccc2)cc1,inactive: -23.8%,
O=C(NCCC1=CCCCC1)c1cccnc1N1CC2CC(C1)[C@H]1CCCC(=O)N1C2 (stereo not given in full),inactive: -22.6%,
COc1ccc2[nH]c(C[C@@H]3C[C@@H](C(C)C)[C@H](CNC(=O)C4CCC4)C=C3C)nc2n1,,"inconclusive: 5.01 µM [cytotoxic, full curve]"
COC[C@@H]1CN(c2cnccn2)C[C@H]1C(=O)NCc1ccc(C)c(C)c1,inactive: -18.9%,
COc1cc(OC)cc(-c2nc(C3CC(=O)N(c4ccc(C)cc4)C3)no2)c1 (stereo not given),inactive: 5.79%,
CCc1ccc(C2CC(=O)c3c([nH]c(C(=O)OCC4CCCCC4)c3C)C2)cc1 (stereo not given),,"inconclusive: 4.47 µM [rising, full curve, poor fit]"
COc1ccccc1-c1cccc(C(=O)N2CCN(C(=O)c3ccccc3Cl)CC2)c1,,"inconclusive: 8.91 µM [cytotoxic, single point]"
COc1ccccc1CN1CCC2(CC1)OC(=O)N(Cc1ccccc1F)C2(C)c1ccccc1 (stereo not given),,"inconclusive: 35.5 µM [cytotoxic, partial curve, poor fit]"
CC(=O)Nc1ccc(C(=O)NC[C@@H]2C=C(C)[C@H](CC(=O)NCCN3CCOCC3)C[C@H]2C(C)C)cc1,inactive: 1.37%,
CCc1ccc(C(=O)c2cn(CC(=O)Nc3ccc(F)c(F)c3)c3cc(OC)c(OC)cc3c2=O)cc1,,"inconclusive: 11.2 µM [cytotoxic, partial curve, poor fit]"
CNC(=O)c1ccc2cncn2c1,inactive: -4.66% [at 87.6 µM],
COCCN1C(=O)c2ccccc2C(C(=O)NCc2ccccc2OC)C12CCCC2 (stereo not given),inactive: 4.37%,
CCC(C(=O)Nc1ccc(C(=O)OC)cc1)n1c(=O)c(-c2ccccc2NC(C)=O)nc2ccccc21 (stereo not given),,"inconclusive: 3.16 µM [cytotoxic, full curve, poor fit]"

SMILES,"activity change, negative = cytotoxicity",Potency
Clc1ccccc1C1(c2ccnc(C3CC3)n2)CCNCC1,,"inconclusive: 35.5 µM [cytotoxic, partial curve, poor fit]"
Cc1c(Cl)ccc2sc(NC(=O)c3ccc(S(=O)(=O)N4CCCc5ccccc54)cc3)nc12,,"inconclusive: 39.8 µM [cytotoxic, single point]"
CCCCCNC(=O)c1noc(-c2ccccc2F)n1,inactive: 3.82%,
CC1=C[C@@H](CN2CCN(CCO)CC2)[C@H](C(C)C)C[C@H]1Cc1nnc(-c2ccc(C)cc2)o1,,"inconclusive: 31.6 µM [cytotoxic, single point]"
CN(C)c1ncc2nc(-c3cccs3)c(=O)n(-c3ccccc3)c2n1,,"inconclusive: 12.6 µM [rising, partial curve]"
CCc1ccc2c(-c3cccc(Cl)c3)nc(=O)n(CC)c2n1,,"inconclusive: 8.91 µM [cytotoxic, single point]"
CCOc1ccccc1NC(=O)[C@H]1CCC[C@H]1NC(=O)c1ccc(OC)cc1,,"inconclusive: 1.58 µM [cytotoxic, full curve, poor fit]"
Clc1cccc(N2CCN(c3nc4ccccc4n4cnnc34)CC2)c1,,"inconclusive: 39.8 µM [rising, single point]"
COc1ccccc1/C=C/c1nc(C#N)c(N2CCCCC2)o1,,"inconclusive: 31.6 µM [rising, partial curve]"
O=C(CN1C(=O)NC(c2ccc(Cl)cc2)C2=C1COC2=O)NCCc1ccc(Cl)cc1 (stereo not given),,"inconclusive: 39.8 µM [cytotoxic, single point]"
CC(CCc1ccccc1)NC(=O)Cn1ncc2c3ccccc3n(Cc3ccc(F)cc3)c2c1=O (stereo not given),,"inconclusive: 12.6 µM [rising, partial curve, poor fit]"
Cc1ccc(C2C=C(c3ccc(Cl)cc3)Nc3nc(NS(=O)(=O)c4ccccc4)nn32)cc1 (stereo not given),,"inconclusive: 25.1 µM [rising, partial curve]"
COCC1CN(S(=O)(=O)c2ccc(C)cc2)CC12CCOCC2 (stereo not given),,"inconclusive: 6.31 µM [rising, partial curve, poor fit]"
CCC(=O)N1CCN(c2nc3c(s2)CC(C(=O)Nc2ccc(F)cc2)CC3)CC1 (stereo not given),,"inconclusive: 39.8 µM [cytotoxic, single point]"
O=C1c2[nH]nc(-c3ccccc3O)c2C(c2ccc(Cl)cc2)N1Cc1ccco1 (stereo not given),,"inconclusive: 20 µM [cytotoxic, partial curve]"
O=C1NCCc2[nH]c(-c3ccncc3)cc21,,"inconclusive: 4.82 µM [cytotoxic, full curve, poor fit]"
CN(C)C[C@@H]1CN(c2ncccn2)C[C@H]1NC(=O)CCn1cccn1,inactive: 0.824%,
CCc1ccc(C(=O)c2cn(CC(=O)NCCc3ccc(OC)c(OC)c3)c3nc(C)ccc3c2=O)cc1,,"inconclusive: 8.91 µM [cytotoxic, full curve, poor fit]"
O=C(c1cccnc1)N1CCC2(CCCN(Cc3cccc(F)c3F)C2=O)C1 (stereo not given),inactive: -4.79%,
O=c1cc(N2CCOCC2)oc2c(-c3ccccc3F)nccc12,,"inconclusive: 10 µM [cytotoxic, single point]"
CCc1ccc(-n2c(SCc3ccccc3F)nc3[nH]ncc3c2=O)cc1,,"inconclusive: 39.8 µM [cytotoxic, single point]"
COc1ccc(S(=O)(=O)Nc2cccnc2Nc2ccc(O)cc2)cc1,,"inconclusive: 3.83 µM [cytotoxic, full curve, poor fit]"

SMILES,"activity change, negative = cytotoxicity",Potency
O=C(Nc1cc2cc[nH]c2cn1)c1ccccc1,inconclusive: -32% [cytotoxic],
Cc1cccc(NC(=O)N2CCc3c(C(=O)NC(C)(C)C)cccc32)c1,inactive: -23.4%,
CC(c1cccs1)N(C)Cc1cccc2ccccc12 (stereo not given),inactive: 12.1% [at 87.6 µM],
O=C(CCC[C@@H]1[C@H]2CCCN3CCC[C@@H](CN1C(=O)c1ccccc1)[C@@H]23)NCCN1CCCCC1,,"inconclusive: 4.47 µM [cytotoxic, full curve]"
CCOc1ccccc1CN1CCC2(CCN(C(=O)C3CC3)CC2)Oc2ccccc21,inactive: -0.258%,
CC(C)c1ccc(CC(=O)N2CCCc3ncc(C(=O)Nc4cccc(Cl)c4)cc32)cc1,,"inconclusive: 25.1 µM [cytotoxic, single point]"
COc1ccc(-c2cc(N3CCCC(NC(=O)c4ccc5ncccc5c4)C3)n[nH]2)cc1 (stereo not given),,"inconclusive: 10 µM [cytotoxic, partial curve, poor fit]"
COc1ccc(C(=O)NCCn2cc(SCC(=O)Nc3cccc(C)c3)c3ccccc32)cc1,,"inconclusive: 28.2 µM [cytotoxic, single point]"
Cc1ccc(-c2cccc(CN3CCCC(N[S+](=O)([O-])c4ccccc4)C3)c2)cc1Cl (stereo not given),inactive: 5.01%,
Cc1ccn2c(Nc3ccccc3C)c(-c3ccccn3)nc2c1,,"inconclusive: 25.1 µM [cytotoxic, single point]"
COCCNC(=O)C(NC(=O)C1CCCC1)C1CCN(C(=O)c2cccs2)CC1 (stereo not given),,"inconclusive: 0.708 µM [cytotoxic, full curve, poor fit]"
O=C(NCCC1=CCCCC1)C1CC(=O)N(c2n[nH]c3ccccc23)C1 (stereo not given),inactive: 6.84%,
Oc1ccccc1CN1CCOC[C@H]1c1ncc(-c2ccc(F)cc2F)[nH]1,inactive: -1.52% [at 87.6 µM],
Cc1ccc(CNC(=O)CS(=O)(=O)c2cccc3nsnc23)cc1,inconclusive: 52.9%,
c1cc(-c2nc(C3CCOCC3)nn2CC2COCCO2)[nH]n1 (stereo not given),,"inconclusive: 0.631 µM [cytotoxic, partial curve, poor fit]"
O=C(NCCCN1CCCCCC1)c1ccc2c(c1)sc1nc(-c3ccccc3)cn12,,"inconclusive: 2 µM [cytotoxic, full curve, poor fit]"
O=C(NCCc1ccncc1)C1c2ccccc2C(=O)N(C2CCCCC2)C12CCCCC2 (stereo not given),,"inconclusive: 3.16 µM [cytotoxic, full curve, poor fit]"
COc1ccc(S(=O)(=O)N2CCc3c(C(=O)NCCc4ccccn4)cccc32)cc1,,"inconclusive: 20 µM [cytotoxic, single point]"
COc1ccc(-c2nc(CSCC(=O)N3CCN(c4cc(Cl)ccc4C)CC3)c(C)o2)cc1,,"inconclusive: 39.8 µM [cytotoxic, single point]"
Cc1cccc2sc(N(CCN(C)C)C(=O)c3ccc4c(c3)OCCO4)nc12,inactive: 5.75%,
COc1ccccc1[C@@H]1C2=C(CC(C)(C)CC2=O)Nc2n[nH]c(C(F)(F)F)c21,,"inconclusive: 33.6 µM [cytotoxic, partial curve, poor fit]"
